From patent US20240366779A1, “SELECTIVE DRUG RELEASE FROM INTERNALIZED CONJUGATES OF BIOLOGICALLY ACTIVE COMPOUNDS” (priority 2021, published 2024)

Tested on: L428, DELBVR and Karpas299/Karpas299-BVR xenografts
Assay: Xenograft models for cAC10 camptothecin ADCs
Type: in vivo, mouse
Settings: single dose i.p.; L428 2 or 6 mg/kg, DELBVR 0.3 or 0.9 mg/kg, Karpas299/Karpas299-BVR 0.5 and 1.5 mg/kg; FIGS. 24-26
Method: All experiments were conducted in concordance with the Animal Care and Use Committee in a facility fully accredited by the Association for Assessment and Accreditation of Laboratory Animal Care. Efficacy experiments were conducted in the L428, KMH2, Karpas/Karpas-BVR, DelBVR, and Caki-1 xenografts models. Tumor cells, as a cell suspension, were implanted sub-cutaneous in immune-compromised SCID or nude mice. Upon tumor engraftment, mice were randomized to study groups (5 mice per group) when the average tumor volume reached about 100 mm3. The ADC or controls were dosed once via intraperitoneal injection. The average number of drug-linker attached to an antibody is indicated in the parenthesis next to the ADC (also referred to herein as Drug-Antibody Ratio (DAR) number, e.g., DAR4, DAR8, etc.). Tumor volume as a function of time was determined using the formula (L×W2)/2. Animals were euthanized when tumor volumes reached 750 mm3. Mice showing durable regressions were terminated after 10-12 weeks post implant.
Animals were implanted with L428 cells. […] Animals were evaluated for tumor size and in-life signs during the course of the study.
Animals were implanted with Del-brentuximab vedotin resistant (DELBVR) cells. […] Animals were evaluated for tumor size and in-life signs during the course of the study.
Animals were implanted with a 1:1 mixture of CD30+ Karpas299 and CD30− Karpas299-brentuximab vedotin resistant (Karpas299-BVR) cells. […] Animals were evaluated for tumor size and in-life signs during the course of the study.

B1: cAC10-Compound 43(8) (conjugate, chains of the INN, looked up)
heavy: QIQLQQSGPEVVKPGASVKISCKASGYTFTDYYITWVKQKPGQGLEWIGWIYPGSGNTKYNEKFKGKATLTVDTSSSTAFMQLSSLTSEDTAVYFCANYGNYWFAYWGQGTQVTVSA[human IgG1 constant region left out]
light: DIVLTQSPASLAVSLGQRATISCKASQSVDFDGDSYMNWYQQKPGQPPKVLIYAASNLESGIPARFSGSGSGTDFTLNIHPVEEEDAATYYCQQSNEDPWTFGGGTKLEIKRTVAAPSVFIFPPSDEQLKSGTASVVCLLNNFYPREAKVQWKVDNALQSGNSQESVTEQDSKDSTYSLSSTLTLSKADYEKHKVYACEVTHQGLSSPVTKSFNRGEC
modifications: Compound 43 payload, DAR 8
  in vivo anti-tumor activity: displayed in vivo anti-tumor activities

B2: cAC10-Compound 43b(8) (conjugate, chains of the INN, looked up)
heavy: QIQLQQSGPEVVKPGASVKISCKASGYTFTDYYITWVKQKPGQGLEWIGWIYPGSGNTKYNEKFKGKATLTVDTSSSTAFMQLSSLTSEDTAVYFCANYGNYWFAYWGQGTQVTVSA[human IgG1 constant region left out]
light: DIVLTQSPASLAVSLGQRATISCKASQSVDFDGDSYMNWYQQKPGQPPKVLIYAASNLESGIPARFSGSGSGTDFTLNIHPVEEEDAATYYCQQSNEDPWTFGGGTKLEIKRTVAAPSVFIFPPSDEQLKSGTASVVCLLNNFYPREAKVQWKVDNALQSGNSQESVTEQDSKDSTYSLSSTLTLSKADYEKHKVYACEVTHQGLSSPVTKSFNRGEC
modifications: Compound 43b payload, DAR 8
  in vivo anti-tumor activity: displayed in vivo anti-tumor activities

B3: cAC10-Compound 43a(8) (conjugate, chains of the INN, looked up)
heavy: QIQLQQSGPEVVKPGASVKISCKASGYTFTDYYITWVKQKPGQGLEWIGWIYPGSGNTKYNEKFKGKATLTVDTSSSTAFMQLSSLTSEDTAVYFCANYGNYWFAYWGQGTQVTVSA[human IgG1 constant region left out]
light: DIVLTQSPASLAVSLGQRATISCKASQSVDFDGDSYMNWYQQKPGQPPKVLIYAASNLESGIPARFSGSGSGTDFTLNIHPVEEEDAATYYCQQSNEDPWTFGGGTKLEIKRTVAAPSVFIFPPSDEQLKSGTASVVCLLNNFYPREAKVQWKVDNALQSGNSQESVTEQDSKDSTYSLSSTLTLSKADYEKHKVYACEVTHQGLSSPVTKSFNRGEC
modifications: Compound 43a payload, DAR 8
  in vivo anti-tumor activity: displayed in vivo anti-tumor activities
